Results on 25 sequences are retold here after the supplement of paper PMC11417369.

± gives the standard deviation of the averaged measurements. Some of the results follow.

This experiment concerns PfAP2-I AP2 domain 3 (GST-tagged). In words: gcPBM binding intensity (ln(normalized median fluorescence intensity)); higher = stronger DNA binding. The method in brief:
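For binding intensity, the highest Masliner-normalised natural-log median intensity across replicate spots of either probe orientation was taken. Protein bound to the array was stained with Alexa488 anti-GST antibody and scanned at 488 nm. The protein, GST-tagged P. falciparum DNA-binding domains from E. coli at about 25 μg on average, had been applied for 1 h to an Agilent 4 × 180k array of primer-extended double-stranded 36-bp intergenic genomic probes and negative controls.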
Take “ATATTTTATTATATAGGTACACATAATTTCATGTAA [XGTACX_site415]”: the “gcPBM binding intensity (ln)” value amounted to 7.83 ± 0.52.
As for “TATATAGTAAATATTTGTACATAATAAAATATATGT [XGTACX_site7873]”, the “gcPBM binding intensity (ln)” value was 7.67 ± 0.46.
To “TTTTGTACATCTTTTGCACACGTAATGTTATTATAA [CACACA_site1259]” belongs 9.39 ± 0.2; to “AATAAATAAAAATGCACACAGTTAACATGTTGAATT [CACACA_site4795]”, 8.62 ± 0.21.
For “TATAATATAAAAATGAGTACATAGATAATAATATTT [XGTACX_site2376]” the value was 7.91 ± 0.6.
To “TTTTTTTTTTATTAATGTACAAGATATATAATGTTA [XGTACX_site4809]” belongs 7.7 ± 0.64.
As for “ATATATATTTTTAATTGTACAGAATTAAAAATATTG [XGTACX_site1967]”, the “gcPBM binding intensity (ln)” value was found to be 7.64 ± 0.45.
As to “AAAAAAAAAAAAAGCTGTACAATTAAAGACAAACCT [XGTACX_site8610]”, the “gcPBM binding intensity (ln)” value came out at 7.85 ± 0.49.
To “CTTTAACCATATATGTGTACGTATTTTATTCATATT [XGTACX_site6212]” belongs 8.29 ± 0.46; to “AAGAAGTGGAAAATATACTCCACATATATATATGTG [CACACA_negctrl_site304]”, 8.51 ± 0.57.
For “AAAAAACAATTTGTGTGTACACATGATACGTTCGAT [XGTACX_site4112]” the value was 8.12 ± 0.63; for “TTTTTTACAGAAAAATATTAAAATTATAAATGTGAA [GTGCAC_negctrl_site451]”, 7.72 ± 0.39.
With “GCCCACACGAACCATGCATGCCACGATATAAACCAC [TGCATGCA_site322]”, the “gcPBM binding intensity (ln)” value was found to be 8.34 ± 0.82.
As to TAATATATATATATGGTGCATTTAATTTATATATAA, the “gcPBM binding intensity (ln)” value was determined as 11.2 ± 0.74.
Regarding “TATGAAATTTTAATTACACACAGGAAAATAAAATGT [CACACA_site8430]”, the “gcPBM binding intensity (ln)” value was 7.89 ± 0.78.
On to “TTATAATATATATAAAAGAAAAAAAATTATAATATA [CACACA_negctrl_site90]”, for which the “gcPBM binding intensity (ln)” value worked out at 7.56 ± 0.59.
For “TTATTTTTCTTTATTGGTACACACGAAAAAAAAATT [XGTACX_site6482]” the value was 8.03 ± 0.3; for “TAATATATGTTATATACACACATATAAATATAAATA [CACACA_site6339]”, 7.63 ± 0.45; for “TGTGTATAAGTCACTTGTACTAGTAGTAAAAAAAAA [XGTACX_site4341]”, 7.96 ± 0.6.
As for “TGAAGTATAATTTATCTAATATGTTATATTTTATTT [TGCATGCA_negctrl_site56]”, the “gcPBM binding intensity (ln)” value came to 7.04 ± 0.36.
For “TTTAATATTATTATTTTACACACTTTTTTCCTTTTA [CACACA_site8780]”, the “gcPBM binding intensity (ln)” value turned out to be 7.51 ± 0.77.
As for “CAAATAATATTATGAAGTACTTCAAATTTTGAAAGA [XGTACX_site2530]”, the “gcPBM binding intensity (ln)” value was found to be 7.75 ± 0.54.
As for “TCTTATAAACTCTGCACACATAATATATTAAATGAG [CACACA_site1936]”, the “gcPBM binding intensity (ln)” value is 8.59 ± 0.33.
Consider “AATATAGGTATATCCACACACATATTTATATTTATA [CACACA_site6867]”, for which the “gcPBM binding intensity (ln)” value turned out to be 7.76 ± 0.6.
As for “TAAAGTTTTTCCTATCTATATTTATATTATAAATGA [XGTACX_negctrl_site20]”, the “gcPBM binding intensity (ln)” value turned out to be 7.49 ± 0.56.
